Laboratory results reported in a collection of fitness landscapes (doi:10.1016/j.celrep.2020.107928).
In all, about 81,000 sequences were measured (“one-hybrid fitness for binding parS DNA”: median about -0.17, highest 2% from about 0.51 on). This is one part of the list.

B1: Caulobacter ParB omega fusion; a variant is named by its letters at X, in order, B8GW30 (parent)
chain: MESVVVGEPGMSEGRRGLGRGLSALLGEVDAAPAQAPGEQLGGSREAPIEILQRNPDQPRRTFREEDLEDLSNSIREKGVLQPILVRPSPDTAGEYQIVAGERAWRAAQRAGLKTVPIMVRELDDLAVLEIGIIENVQRADLNVLEEALSYKVLMEKFERTQENIAQTIGKSXSHVANXMRLLXLPDEVQSYLVSGELTAXHARAIAAAADPVALAKQIIEGGLSVRETEALARKAPNLSAGKSKGGRPPRVKDTDTQALESDLSSVLGLDVSIDHRGSTGTLTITYATLEQLDDLCNRLTRGI

Variants of: B1
Assay: one-hybrid fitness for binding parS DNA (scaled: cognate 1, non-cognate 0); higher = stronger binding
Details: with parS DNA site
Outline: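 Fitness is the rescaled log change in variant-to-wild-type read ratio, measured by Illumina sequencing of plasmids before and after bacterial one-hybrid selection. The scale puts cognate at 1 and non-cognate at 0. Selection of Caulobacter ParB libraries, four specificity codons randomised, took place in E. coli USO with a HIS3 reporter, site 19 bp from the promoter, over 48 hours at 37°C on M9-minus-histidine with 0.1 mM IPTG and 5 mM 3-AT.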

Row | Variant | one-hybrid fitness for binding parS DNA
1 | RNTG | 0.908
2 | EFTN | ≤ 0.2
3 | QCVG | ≤ 0.2
4 | QREQ | ≤ 0.2
5 | RVER | ≤ 0.2
6 | HLYW | ≤ 0.2
7 | WKAR | ≤ 0.2
8 | ANAE | ≤ 0.2
9 | ALKI | ≤ 0.2
10 | QFQR | ≤ 0.2
11 | LTTM | ≤ 0.2
12 | QGRW | ≤ 0.2
13 | CTST | ≤ 0.2
14 | PTDY | ≤ 0.2
15 | CRRW | ≤ 0.2
16 | NSFI | ≤ 0.2
17 | SQDT | ≤ 0.2
18 | CLTV | ≤ 0.2
19 | QITN | ≤ 0.2
20 | SRLA | ≤ 0.2
21 | YCES | ≤ 0.2
22 | VRNP | ≤ 0.2
23 | TRNY | ≤ 0.2
24 | PFYG | ≤ 0.2
25 | QAEE | ≤ 0.2

Row | Variant | one-hybrid fitness for binding parS DNA
26 | RLRA | 0.727
27 | SMAV | ≤ 0.2
28 | HRVT | ≤ 0.2
29 | RNFW | ≤ 0.2
30 | ILYL | ≤ 0.2
31 | INSY | ≤ 0.2
32 | RAWC | 0.927
33 | NKLT | ≤ 0.2
34 | ARCS | ≤ 0.2
35 | YPEC | ≤ 0.2
36 | SSLC | ≤ 0.2
37 | LMFM | ≤ 0.2
38 | HHTE | ≤ 0.2
39 | PNQV | ≤ 0.2
40 | RWWT | 0.507
41 | PFLS | ≤ 0.2
42 | KQDT | ≤ 0.2
43 | FRWT | ≤ 0.2
44 | SFKY | ≤ 0.2
45 | GLWW | ≤ 0.2
46 | EIAR | ≤ 0.2
47 | TADI | ≤ 0.2
48 | NWHT | ≤ 0.2
49 | NKSN | ≤ 0.2
50 | SAAS | ≤ 0.2

Row | Variant | one-hybrid fitness for binding parS DNA
51 | CPPL | ≤ 0.2
52 | PFKG | ≤ 0.2
53 | SVQN | ≤ 0.2
54 | GMTV | ≤ 0.2
55 | TWCG | ≤ 0.2
56 | DPDF | ≤ 0.2
57 | LQYY | ≤ 0.2
58 | EATM | ≤ 0.2
59 | ELMT | ≤ 0.2
60 | IVDG | ≤ 0.2
61 | VGTR | ≤ 0.2
62 | NIPS | ≤ 0.2
63 | SQRF | ≤ 0.2
64 | MAMM | ≤ 0.2
65 | AVLD | ≤ 0.2
66 | PMFS | ≤ 0.2
67 | LPTN | ≤ 0.2
68 | LMVV | ≤ 0.2
69 | VNRY | ≤ 0.2
70 | VYQS | ≤ 0.2
71 | KTKI | ≤ 0.2
72 | GFNN | ≤ 0.2
73 | PHFM | ≤ 0.2
74 | QRQL | ≤ 0.2
75 | FRCV | ≤ 0.2

Row | Variant | one-hybrid fitness for binding parS DNA
76 | MMKT | ≤ 0.2
77 | CASA | ≤ 0.2
78 | VWGR | ≤ 0.2
79 | HSMT | ≤ 0.2
80 | ERKM | ≤ 0.2
81 | GIMS | ≤ 0.2
82 | FNGT | ≤ 0.2
83 | TNQT | ≤ 0.2
84 | QDLC | ≤ 0.2
85 | YSGA | ≤ 0.2
86 | INPV | ≤ 0.2
87 | FHTT | ≤ 0.2
88 | CQVS | ≤ 0.2
89 | RNWV | ≤ 0.2
90 | GHLT | ≤ 0.2
91 | QDLN | ≤ 0.2
92 | FFRT | ≤ 0.2
93 | IRNA | ≤ 0.2
94 | GGEF | ≤ 0.2
95 | YKNL | ≤ 0.2
96 | KAWP | ≤ 0.2
97 | DQHT | ≤ 0.2
98 | PLGA | ≤ 0.2
99 | RGAK | ≤ 0.2
100 | ARGM | ≤ 0.2

Row | Variant | one-hybrid fitness for binding parS DNA
101 | YCSL | ≤ 0.2
102 | PEPW | ≤ 0.2
103 | AKLM | ≤ 0.2
104 | HYMI | ≤ 0.2
105 | QQTS | ≤ 0.2
106 | QSNF | ≤ 0.2
107 | VVGL | ≤ 0.2
108 | QGKG | ≤ 0.2
109 | QRKE | ≤ 0.2
110 | SSTQ | ≤ 0.2
111 | YPEG | ≤ 0.2
112 | QQVQ | ≤ 0.2
113 | QPDA | ≤ 0.2
114 | GVGC | ≤ 0.2
115 | RMYS | 1.01
116 | VFRW | ≤ 0.2
117 | PLMW | ≤ 0.2
118 | RIHL | ≤ 0.2
119 | QYSN | ≤ 0.2
120 | NRFF | ≤ 0.2
121 | KMPC | ≤ 0.2
122 | QAWC | ≤ 0.2
123 | QGPS | ≤ 0.2
124 | MHTC | ≤ 0.2
125 | YQDY | ≤ 0.2

Row | Variant | one-hybrid fitness for binding parS DNA
126 | CHRH | ≤ 0.2
127 | AKNI | ≤ 0.2
128 | QRTR | ≤ 0.2
129 | WIFG | ≤ 0.2
130 | RTCC | 0.959
131 | RMWL | ≤ 0.2
132 | HENT | ≤ 0.2
133 | QANA | ≤ 0.2
134 | IYPS | ≤ 0.2
135 | ESYI | ≤ 0.2
136 | QLLG | ≤ 0.2
137 | AVAV | ≤ 0.2
138 | TTVM | ≤ 0.2
139 | DEAS | ≤ 0.2
140 | QKCV | ≤ 0.2
141 | GFNF | ≤ 0.2
142 | PNMM | ≤ 0.2
143 | INLL | ≤ 0.2
144 | HYER | ≤ 0.2
145 | TVMQ | ≤ 0.2
146 | CSLN | ≤ 0.2
147 | RFID | ≤ 0.2
148 | SVYR | ≤ 0.2
149 | DEAY | ≤ 0.2
150 | PYVC | ≤ 0.2

Row | Variant | one-hybrid fitness for binding parS DNA
151 | ICIR | ≤ 0.2
152 | IEES | ≤ 0.2
153 | YVVG | ≤ 0.2
154 | PNPW | ≤ 0.2
155 | QDWW | 0.287
156 | PLWA | ≤ 0.2
157 | FRTQ | ≤ 0.2
158 | ACYY | ≤ 0.2
159 | QKIR | ≤ 0.2
160 | SEHQ | 0.354
161 | RNSR | ≤ 0.2
162 | SSHG | ≤ 0.2
163 | DMNS | ≤ 0.2
164 | DRFV | ≤ 0.2
165 | RRHG | 0.72
166 | YMRC | ≤ 0.2
167 | HAAI | ≤ 0.2
168 | QVPS | ≤ 0.2
169 | LPRT | ≤ 0.2
170 | SMRW | ≤ 0.2
171 | QVEF | ≤ 0.2
172 | YRVS | ≤ 0.2
173 | KHQV | ≤ 0.2
174 | EAKH | ≤ 0.2
175 | LPIQ | ≤ 0.2

Row | Variant | one-hybrid fitness for binding parS DNA
176 | LPAK | ≤ 0.2
177 | VEYR | ≤ 0.2
178 | DIDR | ≤ 0.2
179 | HQAD | ≤ 0.2
180 | YCEM | ≤ 0.2
181 | GKYG | ≤ 0.2
182 | CYLY | ≤ 0.2
183 | ADPV | ≤ 0.2
184 | KRRT | ≤ 0.2
185 | EDME | ≤ 0.2
186 | HKDD | ≤ 0.2
187 | EIIR | ≤ 0.2
188 | VTKH | ≤ 0.2
189 | IAPG | ≤ 0.2
190 | ESWG | ≤ 0.2
191 | YVFS | ≤ 0.2
192 | QMCR | ≤ 0.2
193 | RVCE | ≤ 0.2
194 | TLKR | ≤ 0.2
195 | HPSL | ≤ 0.2
